In the supplement of paper PMC11417369:
This is one part of the list.

The sequences below were run on PfHDP1 homeodomain (GST-tagged) (assay: gcPBM binding intensity (ln(normalized median fluorescence intensity)); higher = stronger DNA binding).
Procedure, shortened: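 Binding intensity is the highest Masliner-normalised natural-log median intensity over replicate spots in either probe orientation. To obtain it, GST-tagged P. falciparum DNA-binding domains made in E. coli were incubated for 1 h on an Agilent 4 × 180k array of primer-extended double-stranded 36-bp intergenic genomic probes plus negative controls. Detection used Alexa488 anti-GST antibody with scanning at 488 nm.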

Sequence	gcPBM binding intensity (ln)
CACTAAACATATACACGTACATGCAACGGATTTTTT [XGTACX_site461]	6.76
TGGATGTTAATATAGTGTACATTTATAAGTCAGTAT [XGTACX_site2949]	6.71
GTGGAAAAAAATAATTGTACACAATAATAAATATAT [XGTACX_site2414]	6.71
TAGTATTGTAAAAAAAAAAAAGAAAAAAAAAAAAAA [CACACA_negctrl_site977]	6.22
TAAATCTATATCATCACACACACATACATAAATATA [CACACA_site6228]	6.85
AATATATGGTTCCTTGATATTAAATTCAATTTAATG [CACACA_negctrl_site71]	6.25
TGTGTATATGTGCAAAGTACAAAAAAGAAATTATTT [XGTACX_site7569]	9.87
AAAATATATATAACTTGTACATATACATACGTATAT [XGTACX_site4570]	6.36
TGTATATATCAATGTACACACATGCGTATGTTCGTT [CACACA_site7654]	6.61
TATAAAAAAAATTGCACACATATTATACAGGACGAC [CACACA_site701]	10
TATAAAATATAATTAGCACACATATATAAAATATAT [CACACA_site9355]	6.83
AATATATGTAATATATGTACTTAATTATATTTTAAT [XGTACX_site4382]	6.11
TACTAATATGATATATAAATATTGTTATATAATAAT [XGTACX_negctrl_site227]	6.17
AAAATAAAAGAAAAAAGTACAAAATCAGATTAATTA [XGTACX_site8413]	6.27
TGAATACAAATTTACGCATGTAATTTCCAGAGGGAG [TGCATGCA_site769]	6.42
GAATAATATGGACATACACACATATACATACATATA [CACACA_site2114]	6.65
TTATTTCATTCTTGAAGTACGTGAAAAATGAAAACA [XGTACX_site4089]	6.55
ACATATGAATATAATACACACTTGTATTATTAATAT [CACACA_site8546]	6.52
TTACCTTTATTGTATGAACACACATAAGCTGATACA [CACACA_site9334]	6.7
TATATATATACATATTGTACATGTGTATATTTTTTT [XGTACX_site361]	7.63
TTAGTTATTAAAAAAAGTACATAAGTAGATATCATC [XGTACX_site8712]	6.18
CCATTTTTTTTATACGCACACGTCATACTTTTAAAA [CACACA_site4988]	8.04

Sequence	gcPBM binding intensity (ln)
AAAATTTAATATAATGCACACATAAAAAAAAAAAAA [CACACA_site7923]	10.4
CGTAATAAAAACAAATGTACATGACCTGGACAGGTT [XGTACX_site6560]	6.4
ATATAAAACTATAATACACACATAAAATATATTATA [CACACA_site6588]	6.74
GTATATTTTTAAAGGTGTACTTTTTTTTTTTTTTTT [XGTACX_site721]	6.8
ATAAATATATATATAGTGCATATAAGCCACCTTCAA [GTGCAC_site9628]	8.73
TATATAATACAACATGCACACATATATATGTGAATC [CACACA_site8794]	9.26
TATATTTATTTATTCTGTACTGAAGACAGTTATGTA [XGTACX_site8857]	6.45
ATTTAAAAAAAAAAAAAAAAAAAAAAAAAAAGAAAA [CACACA_negctrl_site722]	5.67
TAATCCTTTCAATATTGTACACATTTGTGTTAAGAA [XGTACX_site1275]	6.79
TATATTATGACCACCACACACCTATACACATAACAT [CACACA_site7199]	7.01
TTTAATATTAGCATATGTACACAAATCACACGGAAA [XGTACX_site2473]	7.34
ATATATTTTATATAATGTACATAAACCGCACACATA [XGTACX_site6061]	6.71
TTTCAAATTTAATACACACACAAGTATATATCTATC [CACACA_site7782]	6.54
ATTTATATATAATATACACACATATAATACCCATAT [CACACA_site4548]	6.73
AACGCACGAGGACACACACACATATTTATATTTATA [CACACA_site6608]	7.08
TTTTTTAACTGTATGATGTTATATTAAAAATAAAAA [GTGCAC_negctrl_site463]	6.21
TCAAATATATAGAATACACACATGGATATAAGAAAT [CACACA_site4065]	6.93
GGACAAGAATAGTGCACATGCAATGTTATTTTTTAT [TGCATGCA_site450]	9.96
CGTTTTAATAAGATCACACATATAATATATATATAT [CACACA_site5159]	8.57
ATTATAACCATATACACACCCATATAAATAAATATA [CACACA_site6926]	6.85
ATATTAAATGTTATCACACACATAATTACTTCCATA [CACACA_site7160]	6.7
TATTAAATGGCCATTACATGCAATTATTTCTAATAA [TGCATGCA_site275]	6.33

Sequence	gcPBM binding intensity (ln)
ATAATATAAATACAAACACACAATTGCGTCCACATT [CACACA_site5039]	6.59
TCATACGAAATATAAACACACATACAATAAATAAAT [CACACA_site5156]	6.72
ATTTAATTTGTTCTTACACACACATATATATATATT [CACACA_site8310]	7.48
AACAAATTGAAACAATAATTGGAAAAAAAAAAAAAA [CACACA_negctrl_site1145]	6.04
AACAAATACGGACACACACACACACTAGAAAAAAAA [CACACA_site4442]	6.7
ATAAAATAAAAGGAATGTACTTTTTTTATTGTAATT [XGTACX_site4372]	6.09
TAAAAAAAAACAGAAACACACATTATTCATATAGAT [CACACA_site7052]	6.37
GTTATAAATTTTTTTTTTTTTTTTTTTTTTTTTTTT [CACACA_negctrl_site848]	7.2
AAAAGCACCGTTCGTTGTACACTGAAACACTTTTGT [XGTACX_site199]	6.52
AAGAAAAAAACAAAAAAAAAAAAAAAAATTCTTATT [TGCATGCA_negctrl_site504]	5.73
CTATAATATTAGTGCACACACAAAAATGTACTAAAC [CACACA_site6442]	10.6
ATTTTTTTCCACTAGTGTACAAATTTTACATTGTGT [XGTACX_site5023]	7.57
ACTAATGTAAAAGTTTGTACATATATTGAGAATTAT [XGTACX_site7439]	6.4
TTTTCAATTTTTTATGAACACACAAAAAAAAAAAAA [CACACA_site8808]	6.49
TATTGATAATTTTATATATACATACATAAATAAATA [CACACA_negctrl_site1687]	5.98
TCGCAAATAAATTAATGTACACATATATATATATAT [XGTACX_site5145]	9.33
ATAAACTGAGTGGTTACACACAAAACCAATAATTTT [CACACA_site3478]	6.14
AAATGTATATATGTATGTACATATATATATATATAT [XGTACX_site5778]	9.27
AGTTTCTATTTAGTGTGTACTTAAGAAAAATATCTC [XGTACX_site82]	6.3
ATATATATATATATATGTACTCATATTTTATTATTT [XGTACX_site898]	9.25
ACATAGATGCATATCACACATAATAATATTGTCGTA [CACACA_site4819]	6.56
TTATAAAATAAACTTACACACATGAAATATTATATT [CACACA_site1945]	6.25

Sequence	gcPBM binding intensity (ln)
TAAAGCGACATTTGGAAAATATATATCCTAGCATTT [CACACA_negctrl_site327]	6.08
AAAATACACAGACACACACACATATAAATAAATATT [CACACA_site7871]	6.98
ATTCGTTATAAAATATGTACATAAATATATATATAT [XGTACX_site2819]	8.55
TATTCGTGCAATAGTAGTACACTTAAAAATTATTCA [XGTACX_site269]	9.88
AATAAGTTATTATTTTGTACACATAAATAATACGTT [XGTACX_site814]	6.2
GCACTAAAAAAATAAACACACAGATTTATATAATAT [CACACA_site1381]	6.5
ATATATGCATATATTTGTACACATTTTTTTACATAA [XGTACX_site4624]	7.32
AAAAAAACGTAAAAATGTACTTTTTGTATATAACCT [XGTACX_site7950]	6.74
AAGGAACTATAATATACACACATAAGTGTACTTATA [CACACA_site7816]	6.21
AGGAAAATTATGAATGGTACAGAATATATTAGGAGA [XGTACX_site6282]	7.46
TATTTGTGGATTTTTACACACATTAATATATATATA [CACACA_site3375]	8.14
AAACAAAATAAATATGAACACACACCGTTATGCCTT [CACACA_site8347]	6.36
AAGACAAATTTTACATGTACAAATATATTACATATA [XGTACX_site7060]	6.83
AAGAAAAAAAGCAACACACGTACCAACACAATTATG [CACACA_site3133]	6.88
TATTCAAATTTCCACATACACACCTTGTAGATATAT [CACACA_site281]	6.72
ATTTCTTTTGTTATAGTGCATAATATTTATGTACGT	8.44
AAAGAAAGAAAGAAAAGTACTTAAACTTTTAAAAAT [XGTACX_site8531]	6.03
AATAATAATAAAAATAAACACACATATATATGTATA [CACACA_site8928]	6.38
TTAAATAAATAAATAACACACATATAAAAATAACGC [CACACA_site3266]	7
TAACTATCATGTATTACACACAATATTTATTATATA [CACACA_site2701]	6.76
ATATTAATATATAGAAGTACTCACATGTTAATATAA [XGTACX_site7323]	6.83
TAATATTTCGCACTGTGTACTGAAATATTTATATCG [XGTACX_site516]	6.96
